Experimental data reported in PubChem BioAssay (EPA / NIEHS).
For part of these data: This list holds what a sample rich in hits left over. Results filed as inconclusive are left out. Where a structure was tested more than once in an assay, its records may differ in their call. The entries are a selection whose mix differs from that of the whole data set. Activity calls are given as the source filed them. How the source made its calls, unless noted: active means hit-call score of the fitted dose curve at least 0.9, where 1 is the maximum; inconclusive means response in the unintended direction; inactive means score below 0.9.

Columns and labels:
[1] = read-out: Vascular cell adhesion molecule 1 (VCAM1), VCAM1 (gene 7412); experiment: BSK_hDFCGF_VCAM1: BioMAP Diversity Plus: hDFCGF Assay for Vascular cell adhesion molecule 1 (VCAM1) Biomarker Activity (AID 2283065; active means hit-call score of the fitted dose curve at least 0.9, where 1 is the maximum; inactive means score below 0.9;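 on AC50: VCAM-1 protein level quantified by ELISA after 24 h chemical exposure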); conditions: actives raise or lower the signal; primary human foreskin fibroblasts
Summary of the method: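 Human foreskin fibroblast primary cells dosed with chemical, VCAM-1 measured by ELISA at 24 h. Bidirectional curve fitting relative to DMSO as negative control/baseline.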

[2] = biological target: Androgen Receptor/SRC-1 Co-activator, AR (gene 367) (UniProt P10275); experiment: OT_AR_ARSRC1_0960: Odyssey Thera (OT) 16-hour HEK293T Protein-Complementation Assay for Androgen Receptor/SRC-1 Co-activator (AID 2283353);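 further: actives raise the signal above DMSO so potency reflects increased AR and SRC-1 complex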
Chain of UniProt P10275 (P10275 whole entry, looked up, the tested form may be a part): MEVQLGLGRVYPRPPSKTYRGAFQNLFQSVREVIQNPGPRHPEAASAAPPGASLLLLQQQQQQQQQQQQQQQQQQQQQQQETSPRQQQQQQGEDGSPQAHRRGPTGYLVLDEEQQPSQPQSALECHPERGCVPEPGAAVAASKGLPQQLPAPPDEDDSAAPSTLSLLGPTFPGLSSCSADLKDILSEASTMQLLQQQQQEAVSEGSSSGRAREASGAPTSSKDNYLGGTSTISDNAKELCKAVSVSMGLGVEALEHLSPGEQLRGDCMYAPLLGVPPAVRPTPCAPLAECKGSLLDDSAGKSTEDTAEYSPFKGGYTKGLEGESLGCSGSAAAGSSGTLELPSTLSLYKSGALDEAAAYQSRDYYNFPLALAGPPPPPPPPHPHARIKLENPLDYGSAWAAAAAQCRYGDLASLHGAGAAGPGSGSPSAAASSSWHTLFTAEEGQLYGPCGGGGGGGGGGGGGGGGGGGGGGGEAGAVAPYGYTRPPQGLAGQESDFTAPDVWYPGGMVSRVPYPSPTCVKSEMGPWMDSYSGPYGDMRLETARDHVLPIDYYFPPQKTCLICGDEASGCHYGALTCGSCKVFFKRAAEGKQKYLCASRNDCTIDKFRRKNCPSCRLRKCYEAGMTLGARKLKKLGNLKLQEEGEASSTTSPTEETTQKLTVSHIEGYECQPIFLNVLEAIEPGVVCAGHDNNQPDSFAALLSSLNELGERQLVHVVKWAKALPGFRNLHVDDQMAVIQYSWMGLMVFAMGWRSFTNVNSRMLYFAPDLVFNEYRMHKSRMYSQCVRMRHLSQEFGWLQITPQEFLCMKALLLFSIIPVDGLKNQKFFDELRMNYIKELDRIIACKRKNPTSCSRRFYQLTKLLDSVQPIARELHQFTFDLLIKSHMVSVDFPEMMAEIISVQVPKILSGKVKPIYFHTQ
Summary of the method: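 Interaction of AR with SRC-1 was followed by YFP fragment complementation in HEK293T cells after 16 h of dosing. Gain of nuclear-over-cytoplasmic 488 nm fluorescence against DMSO controls defined activity.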

[3] = TOX21_PR_LUC_Followup_Agonist_viability: Viability Assessment in the Tox21 HEK293 Progesterone Receptor (PR) Agonism Luciferase Follow-Up Assay (AID 2283941);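 further: compound exposure 16 h at 37 °C; loss of signal means cytotoxicity so actives lower viability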
Summary of the method: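 Luminescent ATP quantitation (CellTiter-Glo) serves as the read-out; a drop flags cytotoxic compounds. Cells are HEK293-PR-A-luc grown in 10% charcoal-stripped FBS, plated 3,000/well, and exposed to compound for 16 h.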

[4] = read-out: Plasminogen activator inhibitor-1 (PAI1), SERPINE1 (gene 5054); experiment: BSK_hDFCGF_PAI1: BioMAP Diversity Plus: hDFCGF Assay for Plasminogen activator inhibitor-1 (PAI1) Biomarker Activity (AID 2283066; active means hit-call score of the fitted dose curve at least 0.9, where 1 is the maximum; inactive means score below 0.9); conditions: actives raise or lower the signal; primary human foreskin fibroblasts
Summary of the method: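 PAI-1 levels, determined by ELISA, served as the endpoint in human foreskin fibroblast cultures exposed to compound for 24 h, with DMSO as baseline.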

[5] = read-out: Interferon-gamma inducible Protein 10 (IP10), CXCL10 (gene 3627); experiment: BSK_KF3CT_IP10: BioMAP Diversity Plus: KF3CT Assay for Interferon-gamma inducible Protein 10 (IP10) Biomarker Activity (AID 2283068; active means hit-call score of the fitted dose curve at least 0.9, where 1 is the maximum; inactive means score below 0.9); conditions: actives raise or lower the signal; primary human keratinocytes with fibroblasts
Summary of the method: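 Human keratinocyte plus foreskin fibroblast primary co-culture exposed to test chemical for 24 h; IP-10 measured by ELISA. Concentration-response fitted bidirectionally against DMSO control as baseline.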

[6] = read-out: Interferon-inducible T-cell alpha chemoattractant (ITAC), CXCL11 (gene 6373); experiment: BSK_hDFCGF_ITAC: BioMAP Diversity Plus: hDFCGF Assay for Interferon-inducible T-cell alpha chemoattractant (ITAC) Biomarker Activity (AID 2284251; active means hit-call score of the fitted dose curve at least 0.9, where 1 is the maximum; inactive means score below 0.9); conditions: primary human foreskin fibroblasts
Summary of the method: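 ELISA readout of I-TAC after 24 h chemical exposure; human dermal foreskin fibroblast primary cells. Positive-direction fitting vs DMSO baseline. Parallel SRB total-protein staining (0.1% SRB after 10% TCA fixation, 560 nm) flags cytotoxicity.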

[7] = CCTE_Mundy_HCI_iCellGluta_NOG_NeuronCount: CCTE's Neurite Outgrowth Assay in iCellGluta cells for Neuron Count, Mundy Lab (AID 2284340);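 further: cells fixed about 48 h after compound addition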
Summary of the method: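 Neuron count read by automated high-content imaging of Hoechst 33342 and betaIII-tubulin/Alexa Fluor-488 labelling in human iPSC glutamatergic neurons. Activity fitted relative to DMSO.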

[8] = BSK_KF3CT_SRB: Viability Assessment in the BioMAP Diversity Plus: KF3CT Assay (AID 2283069; active means hit-call score of the fitted dose curve at least 0.9, where 1 is the maximum; inactive means score below 0.9;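 further: total protein by sulforhodamine B staining as a cytotoxicity measure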); conditions: primary human keratinocytes with fibroblasts
Summary of the method: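 Human primary keratinocyte plus foreskin fibroblast co-culture exposed to chemicals for 24 h. Total protein measured by 0.1% sulforhodamine B staining after 10% TCA fixation, read at 560 nm; bidirectional fitting versus DMSO baseline.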

[9] = biological target: Estrogen receptor (Homo sapiens) (UniProt P03372); experiment: OT_ERa_GFPERaERE_0480: Odyssey Thera (OT) 8-hour HeLa Transcription Induction Assay for Estrogen Receptor (AID 2283381; active means hit-call score of the fitted dose curve at least 0.9, where 1 is the maximum; inactive means score below 0.9)
Chain of UniProt P03372 (P03372 whole entry, looked up, the tested form may be a part): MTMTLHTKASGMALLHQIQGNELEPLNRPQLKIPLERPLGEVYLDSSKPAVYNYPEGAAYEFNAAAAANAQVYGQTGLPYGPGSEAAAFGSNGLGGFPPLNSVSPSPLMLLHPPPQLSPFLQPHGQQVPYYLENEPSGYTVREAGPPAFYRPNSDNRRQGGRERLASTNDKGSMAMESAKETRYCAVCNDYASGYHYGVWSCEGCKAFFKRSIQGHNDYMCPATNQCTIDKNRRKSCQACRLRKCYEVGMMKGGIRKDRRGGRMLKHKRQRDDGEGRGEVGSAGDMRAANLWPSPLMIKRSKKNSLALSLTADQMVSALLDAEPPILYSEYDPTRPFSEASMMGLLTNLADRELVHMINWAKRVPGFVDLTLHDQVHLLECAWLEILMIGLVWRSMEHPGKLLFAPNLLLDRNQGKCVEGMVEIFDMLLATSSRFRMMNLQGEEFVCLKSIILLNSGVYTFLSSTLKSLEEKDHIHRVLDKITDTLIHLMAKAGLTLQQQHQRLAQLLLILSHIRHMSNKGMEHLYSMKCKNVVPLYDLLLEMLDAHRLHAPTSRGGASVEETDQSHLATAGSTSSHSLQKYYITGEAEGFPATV
Summary of the method: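 Cells (HeLa) receive compound; after 8 h, reporter fluorescence is imaged and quantified by high-content analysis. Gain-of-signal relative to DMSO gives the endpoint.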

[10] = biological target: Retinoic acid receptor RXR-alpha (Homo sapiens) (UniProt P19793); experiment: OT_NURR1_NURR1RXRa_0480: Odyssey Thera (OT) 8-hour HEK293T Protein Complementation Assay for Nurr1/retinoid X receptor (RXR) (AID 2283385)
Chain of UniProt P19793 (P19793 whole entry, looked up, the tested form may be a part): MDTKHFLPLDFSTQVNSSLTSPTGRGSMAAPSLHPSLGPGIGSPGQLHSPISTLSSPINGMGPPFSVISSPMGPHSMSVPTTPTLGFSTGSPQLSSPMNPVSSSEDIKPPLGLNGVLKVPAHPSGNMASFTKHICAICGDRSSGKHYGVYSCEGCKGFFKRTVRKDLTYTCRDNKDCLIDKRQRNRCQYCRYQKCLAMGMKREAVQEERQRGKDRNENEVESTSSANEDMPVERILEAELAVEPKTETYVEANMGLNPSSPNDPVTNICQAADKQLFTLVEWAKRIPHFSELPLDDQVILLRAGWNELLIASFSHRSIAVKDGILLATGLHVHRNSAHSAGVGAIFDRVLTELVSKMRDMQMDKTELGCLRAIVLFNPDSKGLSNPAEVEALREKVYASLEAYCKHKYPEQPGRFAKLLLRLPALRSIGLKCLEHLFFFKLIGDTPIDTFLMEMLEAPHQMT
Summary of the method: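 Compounds are applied to HEK293T cells carrying Nurr1 and RXRα linked to reporter fragments. After 8 h, fluorescence intensity reports heterodimer formation, with DMSO as baseline.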

[11] = read-out: Interleukin-1 alpha (IL1a), IL1A (gene 3552); experiment: BSK_KF3CT_IL1a: BioMAP Diversity Plus: KF3CT Assay for Interleukin-1 alpha (IL1a) Biomarker Activity (AID 2283070; active means hit-call score of the fitted dose curve at least 0.9, where 1 is the maximum; inactive means score below 0.9); conditions: actives raise or lower the signal; primary human keratinocytes with fibroblasts
Summary of the method: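 Human keratinocyte plus foreskin fibroblast primary co-culture, sampled 24 h after chemical dosing. IL-1a measured by ELISA; responses fitted bidirectionally against DMSO baseline (negative control), so gain or loss of signal both count.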

[12] = test system: guinea pig Histamine Receptor (H2), gene 100729734; experiment: NVS_GPCR_gH2: NovaScreen (NVS) G Protein-Coupled Receptor Assay for guinea pig Histamine Receptor (H2) (AID 2283342)
Summary of the method: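 Radioligand displacement on guinea pig striatal membranes, 1 h after dosing, filter-based scintillation counting; loss of signal versus DMSO. Single-point screen at 25 uM in duplicate, then concentration-response up to 50 uM.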

[13] = read-out: Interleukin-8 (IL8), CXCL8 (gene 3576); experiment: BSK_LPS_IL8: BioMAP Diversity Plus: LPS Assay for Interleukin-8 (IL8) Biomarker Activity (AID 2283078; active means hit-call score of the fitted dose curve at least 0.9, where 1 is the maximum; inactive means score below 0.9); conditions: actives raise or lower the signal; primary human HUVEC with PBMC
Summary of the method: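 Human umbilical vein endothelial cells co-cultured with PBMC, LPS-stimulated, exposed to compound for 24 h. IL-8 quantified by ELISA; fitted in both directions against DMSO, with SRB total-protein staining of parallel cultures for cytotoxicity.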

[14] = read-out: Monocyte Chemoattractant Protein-1 (MCP1), CCL2 (gene 6347); experiment: BSK_LPS_MCP1: BioMAP Diversity Plus: LPS Assay for Monocyte Chemoattractant Protein-1 (MCP1) Biomarker Activity (AID 2283081; active means hit-call score of the fitted dose curve at least 0.9, where 1 is the maximum; inactive means score below 0.9;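 further: secreted MCP-1 protein quantified by ELISA in culture supernatant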); conditions: actives raise or lower the signal; primary human HUVEC with PBMC
Summary of the method: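 Human umbilical vein endothelial cells co-cultured with PBMC, LPS-stimulated; secreted MCP-1 measured by ELISA 24 h after compound addition. Bidirectional curve fitting against DMSO baseline; SRB total-protein staining in parallel cultures for cytotoxicity.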

[15] = biological target: Estrogen receptor (Homo sapiens) (UniProt P03372); experiment: OT_ER_ERaERa_1440: Odyssey Thera (OT) 24-hour HEK293T Protein-Complementation Assay for Estrogen Receptor-alpha/-alpha Homodimer (AID 2283349);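 further: hits raise fluorescence above DMSO for agonists and antagonists alike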
Summary of the method: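 Readout is the rise in mean fluorescence from reporter fragment complementation when ERα LBD (aa 310-547) units dimerize in HEK293T cells. Measured 24 h after dosing and analysed as increase over DMSO control.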

[16] = biological target: Estrogen receptor (Homo sapiens) (UniProt P03372); experiment: OT_ER_ERaERa_0480: Odyssey Thera (OT) 8-hour HEK293T Protein-Complementation Assay for Estrogen Receptor-alpha/-alpha Homodimer (AID 2283351)
Summary of the method: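 Binding reporter in which dimerisation of ERα LBD (aa 310-547) fusions reconstitutes a fluorescent reporter in HEK293T cells. Compounds incubated 8 h; mean fluorescence intensity increase versus DMSO scored.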

[17] = read-out: ATP-citrate lyase (ACLY), ACLY (gene 47); experiment: LTEA_HepaRG_ACLY: Life Technologies and Expression Analysis (LTEA) Assay for ATP-citrate lyase (ACLY) using HepaRG (AID 2283466; active means hit-call score of the fitted dose curve at least 0.9, where 1 is the maximum; inactive means score below 0.9); conditions: actives raise or lower the signal; mRNA level, 48 h
Summary of the method: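 Differentiated human HepaRG cells in serum-free induction medium exposed 48 h, in duplicate, to eight half-log concentrations from 100 uM top in 0.5% DMSO; ACLY mRNA measured by qRT-PCR, normalized to ACTB, GAPDH, POLR2A, fitted bidirectionally versus DMSO.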

[18] = biological target: Nuclear receptor subfamily 1 group I member 2 (Mus musculus) (UniProt O54915); experiment: ATG_mPXR_XSP2: Attagene TRANS-FACTORIAL Multi-Species (XSP1) HepG2 Assay for mouse Pregnane X Receptor (PXR) (AID 2283831)
Summary of the method: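 HepG2 cells transiently transfected with GAL4-UAS reporter units expressing chimeric NR-Gal4 proteins; 24 h compound exposure. Reporter mRNA quantified by RT-PCR and capillary electrophoresis fluorescence; gain of signal fitted against DMSO.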

[19] = VALA_TUBHUV_Antagonist_CellCount: Viability Assessment in the VALA Sciences human Umbilical Vein Endothelial Tubule Formation (TUBHUV) Antagonism Assay (AID 2284310)
Summary of the method: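 HUVEC co-cultured with HDF (1:3) 3 days in 10 ng/ml VEGF, then 3 days with compounds in VEGF medium. Fixed, nuclear stain and CD31 immunofluorescence, imaged; cell counts fitted versus 0.1% DMSO, loss of signal read as lower viability.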

[20] = read-out: Macrophage colony-stimulating factor (MCSF), CSF1 (gene 1435); experiment: BSK_LPS_MCSF: BioMAP Diversity Plus: LPS Assay for Macrophage colony-stimulating factor (MCSF) Biomarker Activity (AID 2283083; active means hit-call score of the fitted dose curve at least 0.9, where 1 is the maximum; inactive means score below 0.9); conditions: actives raise or lower the signal; primary human HUVEC with PBMC
Summary of the method: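 HUVEC–PBMC co-culture, M-CSF measured by ELISA 24 h after chemical dosing. Fitted in both directions relative to DMSO as negative control; overt cytotoxicity assessed by SRB total-protein staining in parallel cultures.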

In the case of `CC[C@H](c1ccc(O)cc1)[C@@H](CC)c1ccc(O)cc1`, the AC50 [1] is reported as active: 14.5 µM, the outcome [2] is reported as “inactive” and the outcome [3] is reported as “inactive”.
With `CCOCCO` the outcome [1] was “inactive”.
In the case of `NCCOCCOCCN`, the outcome [4] is reported as “inactive”.
For `OCCC(F)(F)C(F)(F)C(F)(F)C(F)(F)C(F)(F)C(F)(F)C(F)(F)C(F)(F)F`, the AC50 [5] was active: 14 µM, the AC50 [6] was active: 14.2 µM and the outcome [7] was “inactive”.
For `CCCCCCC(=O)O`, the outcome [8] was “inactive”, the outcome [9] was “inactive” and the outcome [10] was “inactive”.
With `O=C(N[C@@H](c1ccccc1)[C@@H]1CCCCN1)c1cccc(C(F)(F)F)c1Cl` the AC50 [11] was active: 36.1 µM and the AC50 [12] was active: 11.2 µM.
In the case of `CC(C)CCCCCCc1ccc(O)cc1`, the AC50 [13] is reported as active: 11.7 µM, the AC50 [14] is reported as active: 12 µM and the AC50 [15] is reported as active: 11.9 µM. The AC50 [16] was active: 11.9 µM, the outcome [17] was “inactive” and the outcome [18] was “inactive”. For the same compound, the outcome [19] was “inactive”.
With `Cc1cc(Cc2ccc(N)c(C)c2)ccc1N` the outcome [20] was “inactive”.
